From US10456379B2, “Imidazole-based antimicrobial agents” (priority 2014, dated 2019)

What follows are molecules tested on Human keratinocytes (HaCaT cells) (assay: Human cytotoxicity assay in vitro (CellTiter-Glo), keratinocytes). Conditions: not given.
Type: cell-based

SMILES	cytotoxicity, cell line K (keratinocytes), class
Cc1nc(-c2ccc(-c3cc(F)ccc3C(F)(F)F)o2)[nH]c1-c1ccccc1 [31a]	1 (causing less than 50% inhibition of cell viability at 50 μM)
Cc1[nH]c(-c2ccc(-c3cccc(Cl)c3Cl)o2)nc1-c1ccccc1 [compound 2]	1 (causing less than 50% inhibition of cell viability at 50 μM)
Cc1nc(-c2ccc(-c3cccc(Cl)c3)o2)[nH]c1-c1ccccc1 [compound 4]	2 (causing >50% inhibition of cell viability at 25 μM)
Cc1[nH]c(-c2ccc(-c3ccc(Cl)cc3)s2)nc1-c1ccccc1 [compound 6]	0 (not causing loss of cell viability at concentrations of 50 μM or higher)
Cc1[nH]c(-c2ccc(-c3ccc(F)cc3)s2)nc1-c1ccccc1 [compound 7]	2 (causing >50% inhibition of cell viability at 25 μM)
Cc1[nH]c(-c2cc(C)n(-c3ccc(F)c(F)c3F)c2C)nc1-c1ccccc1 [compound 10]	2 (causing >50% inhibition of cell viability at 25 μM)
Cc1[nH]c(-c2csc(-c3ccc(F)cc3)n2)nc1-c1ccccc1 [compound 11]	2 (causing >50% inhibition of cell viability at 25 μM)
Cc1[nH]c(-c2ccc(-c3cccc(Cl)c3)s2)nc1-c1ccccc1 [compound 12]	2 (causing >50% inhibition of cell viability at 25 μM)
Cc1[nH]c(-c2ccc(-c3cccc(Br)c3)s2)nc1-c1ccccc1 [compound 13]	1 (causing less than 50% inhibition of cell viability at 50 μM)
Cc1[nH]c(-c2csc(-c3cccc(Br)c3)n2)nc1-c1ccccc1 [compound 14]	1 (causing less than 50% inhibition of cell viability at 50 μM)
Cc1nc(-c2ccc(-c3ccccc3C(F)(F)F)o2)[nH]c1-c1ccccc1Cl [compound 20]	0 (not causing loss of cell viability at concentrations of 50 μM or higher)
Cc1[nH]c(-c2ccc(-c3ccccc3C(F)(F)F)o2)nc1-c1cccc(Cl)c1 [compound 22]	2 (causing >50% inhibition of cell viability at 25 μM)
Cc1[nH]c(-c2ccc(-c3ccccc3C(F)(F)F)o2)nc1-c1ccc(Br)cc1 [compound 25]	0 (not causing loss of cell viability at concentrations of 50 μM or higher)
Cc1[nH]c(-c2ccc(-c3ccccc3OC(F)(F)F)o2)nc1-c1ccc(C(F)(F)F)cc1 [compound 26]	0 (not causing loss of cell viability at concentrations of 50 μM or higher)
CCc1ccc(-c2[nH]c(-c3ccc(-c4ccccc4C(F)(F)F)o3)nc2C)cc1 [compound 28]	0 (not causing loss of cell viability at concentrations of 50 μM or higher)
Cc1nc(-c2ccc(-c3cccc(OC(F)(F)F)c3)o2)[nH]c1-c1ccccc1 [compound 34]	2 (causing >50% inhibition of cell viability at 25 μM)
Cc1nc(-c2ccc(-c3cc(C(F)(F)F)cc(C(F)(F)F)c3)o2)[nH]c1-c1ccccc1 [compound 35]	1 (causing less than 50% inhibition of cell viability at 50 μM)
Cc1[nH]c(-c2cc(C)n(-c3cccc(C(F)(F)F)c3)c2C)nc1-c1ccccc1 [compound 36]	2 (causing >50% inhibition of cell viability at 25 μM)

SMILES	cytotoxicity, cell line K (keratinocytes), class
Cc1[nH]c(-c2ccc(-c3cc(C(F)(F)F)ccc3Cl)o2)nc1-c1ccccc1 [compound 40]	1 (causing less than 50% inhibition of cell viability at 50 μM)
Cc1[nH]c(-c2ccc(-c3ccc(OC(F)(F)F)cc3)o2)nc1-c1ccc(Cl)cc1 [compound 48]	1 (causing less than 50% inhibition of cell viability at 50 μM)
Cc1[nH]c(-c2ccc(-c3ccc(C(F)(F)F)c(Cl)c3)o2)nc1-c1ccc(F)cc1 [compound 49]	2 (causing >50% inhibition of cell viability at 25 μM)
Cc1[nH]c(-c2ccc(-c3ccc(OC(F)(F)F)c(Cl)c3)o2)nc1-c1ccc(Cl)cc1 [compound 50]	1 (causing less than 50% inhibition of cell viability at 50 μM)
CCc1ccc(-c2ccc(-c3nc(-c4ccccc4)c(C)[nH]3)o2)cc1 [compound 53]	1 (causing less than 50% inhibition of cell viability at 50 μM)
Cc1ccc(-c2ccc(-c3nc(-c4ccccc4)c(C)[nH]3)s2)cc1 [compound 54]	1 (causing less than 50% inhibition of cell viability at 50 μM)
Cc1ccc(-c2nc(-c3nc(-c4ccccc4)c(C)[nH]3)cs2)cc1 [compound 56]	3 (causing more than 50% inhibition of cell viability at 10 μM)
Cc1ccc(-c2nc(-c3nc(-c4ccccc4)c(C)[nH]3)co2)cc1 [compound 57]	3 (causing more than 50% inhibition of cell viability at 10 μM)
Cc1[nH]c(-c2cc(C)n(-c3ccc(C(C)C)cc3)c2C)nc1-c1ccccc1 [compound 58]	2 (causing >50% inhibition of cell viability at 25 μM)
Cc1[nH]c(-c2cc(C)n(-c3ccc4c(c3)CCC4)c2C)nc1-c1ccccc1 [compound 59]	2 (causing >50% inhibition of cell viability at 25 μM)
Cc1ccccc1-c1ccc(-c2nc(-c3ccccc3)c(C)[nH]2)o1 [compound 61]	2 (causing >50% inhibition of cell viability at 25 μM)
Cc1cccc(C)c1-c1ccc(-c2nc(-c3ccccc3)c(C)[nH]2)o1 [compound 62]	2 (causing >50% inhibition of cell viability at 25 μM)
FC(F)(F)Oc1ccccc1-c1ccc(-c2nc(-c3ccccc3Cl)c[nH]2)o1 [compound 67]	2 (causing >50% inhibition of cell viability at 25 μM)
FC(F)(F)Oc1ccccc1-c1ccc(-c2nc(-c3ccc(Cl)cc3Cl)c[nH]2)o1 [compound 68]	2 (causing >50% inhibition of cell viability at 25 μM)
CN(C)Cc1[nH]c(-c2ccc(-c3ccccc3C(F)(F)F)o2)nc1-c1ccccc1 [compound 70]	2 (causing >50% inhibition of cell viability at 25 μM)
Cc1nc(-c2ccc(-c3ccccc3N(C)C)o2)[nH]c1-c1ccccc1 [compound 71]	1 (causing less than 50% inhibition of cell viability at 50 μM)
Cc1[nH]c(-c2coc(-c3ccccc3C(F)(F)F)c2)nc1-c1ccccc1 [compound 72]	2 (causing >50% inhibition of cell viability at 25 μM)
Cc1[nH]c(-c2ccc(-c3ccccc3)s2)nc1-c1ccccc1 [compound 74]	3 (causing more than 50% inhibition of cell viability at 10 μM)

What follows are molecules tested on Streptococcus pneumoniae (Chester, ATCC49619) (assay: Broth microdilution MIC assay, Streptococcus pneumoniae). Conditions: MIC class score, MIC100, broth microdilution.
Type: cell-based

SMILES	Antibacterial activity Streptococcus pneumoniae
Cc1nc(-c2ccc(-c3cccc(Cl)c3)o2)[nH]c1-c1ccccc1 [compound 4]	4 (MIC of 1 μg/ml or less for preventing streptococcal growth 100% (MIC100))
Cc1nc(-c2ccc(-c3ccc(Cl)cc3)o2)[nH]c1-c1ccccc1 [compound 5]	4 (MIC of 1 μg/ml or less for preventing streptococcal growth 100% (MIC100))
FC(F)(F)c1ccccc1-c1ccc(-c2nc(Cl)c(-c3ccccc3)[nH]2)o1 [compound 65]	4 (MIC of 1 μg/ml or less for preventing streptococcal growth 100% (MIC100))
Cc1nc(-c2ccc(-c3ccccc3F)o2)[nH]c1Cc1ccc(O)cc1 [compound 78]	1 (MIC100 of 11-20 μg/ml or an MIC50 of <10 μg/ml)
Clc1ccccc1-c1ccc(-c2ncc(-c3ccccc3)[nH]2)s1 [compound 81]	1 (MIC100 of 11-20 μg/ml or an MIC50 of <10 μg/ml)
Cc1nc(-c2ccc(-c3ccccc3OC(F)(F)F)o2)[nH]c1C [compound 85]	4 (MIC of 1 μg/ml or less for preventing streptococcal growth 100% (MIC100))
Cc1[nH]c(-c2ccc(-c3cccc(F)c3)s2)nc1-c1ccccc1 [compound 117]	1 (MIC100 of 11-20 μg/ml or an MIC50 of <10 μg/ml)
Cc1[nH]c(-c2ccc(-c3ccc(Br)cc3)s2)nc1-c1ccccc1 [compound 118]	1 (MIC100 of 11-20 μg/ml or an MIC50 of <10 μg/ml)
Cc1nc(-c2ccc(-c3cc4ccccc4o3)o2)[nH]c1-c1ccccc1 [compound 140]	4 (MIC of 1 μg/ml or less for preventing streptococcal growth 100% (MIC100))
Cc1nc(-c2ccc(-c3ccc(N4CCN(C)CC4)cc3)o2)[nH]c1-c1ccccc1 [compound 141]	1 (MIC100 of 11-20 μg/ml or an MIC50 of <10 μg/ml)
Cc1nc(-c2ccc(-c3ccc(F)cc3F)o2)[nH]c1-c1ccccc1 [compound 147]	4 (MIC of 1 μg/ml or less for preventing streptococcal growth 100% (MIC100))
Cc1nc(-c2ccc(-c3ccccc3O)o2)[nH]c1-c1ccccc1 [compound 149]	1 (MIC100 of 11-20 μg/ml or an MIC50 of <10 μg/ml)
Cc1nc(-c2ccc(-c3ccc4c(c3)CC(=O)N4)o2)[nH]c1-c1ccccc1 [compound 151]	1 (MIC100 of 11-20 μg/ml or an MIC50 of <10 μg/ml)
Cc1nc(-c2ccc(-c3ccc4cn[nH]c4c3)o2)[nH]c1-c1ccccc1 [compound 156]	1 (MIC100 of 11-20 μg/ml or an MIC50 of <10 μg/ml)
Cc1[nH]c(-c2cnn(-c3ccc(F)cc3)c2)nc1-c1ccccc1 [compound 166]	1 (MIC100 of 11-20 μg/ml or an MIC50 of <10 μg/ml)
Cc1[nH]c(-c2cnn(-c3ccccc3)c2)nc1-c1ccccc1 [compound 167]	1 (MIC100 of 11-20 μg/ml or an MIC50 of <10 μg/ml)
